Laboratory results taken from PubChem BioAssay AID1346428 (National Center for Advancing Translational Sciences (NCATS), 2018).
In all, about 48,000 compounds went through this assay and about 1,200 (2.5%) were called active. Roughly 2% stayed inconclusive and do not appear here.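 Rule for the calls: active = activation of at least 60% and not above a set upper limit (about 1 call in 100 departs from these limits); inconclusive = activation of 40% to 60%, or above that upper limit; inactive = activation under 40%.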 Some of the results follow.

Target: Probable G-protein coupled receptor 32 (Homo sapiens) (UniProt O75388)
Chain of UniProt O75388 (O75388 whole entry, looked up): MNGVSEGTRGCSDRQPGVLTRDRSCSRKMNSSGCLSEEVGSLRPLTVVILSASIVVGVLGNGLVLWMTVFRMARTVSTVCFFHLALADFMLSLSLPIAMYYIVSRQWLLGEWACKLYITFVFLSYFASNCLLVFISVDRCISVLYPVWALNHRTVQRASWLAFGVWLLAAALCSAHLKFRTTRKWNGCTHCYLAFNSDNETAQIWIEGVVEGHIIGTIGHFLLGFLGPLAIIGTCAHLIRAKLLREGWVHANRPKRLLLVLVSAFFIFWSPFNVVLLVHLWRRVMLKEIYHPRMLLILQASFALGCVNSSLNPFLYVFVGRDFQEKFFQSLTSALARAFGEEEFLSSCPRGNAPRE
Assay: qHTS for Agonists of Human Resolvin D1 Receptor DRV1; note: 0% is about no effect
Settings: CHO-K1 GPR32 beta-arrestin PathHunter luminescence, 90 min; at 76.9 µM; hits give high values; zero percent set by DMSO-only wells
How it was run: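 Cells are plated overnight, treated with compounds in DMSO for 90 minutes at 37 °C, and developed with PathHunter detection reagent for 1 hour before luminescence is read; signal reflects beta-arrestin binding to GPR32 in engineered CHO-K1 cells.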

| Structure (SMILES) | activation |
| --- | --- |
| COc1ccc(C(=O)c2c(N)c(-c3nc(-c4ccccc4)cs3)c3ccccn23)cc1 | inactive: 4% |
| CCc1nn(CC(=O)NCCCN2CCN(C)CC2)c(=O)c2cc3occc3n12 | inactive: -16.4% |
| CSc1ncc(C(=O)N2CCN(c3ccc(Cl)cc3)CC2)c(C)n1 | inactive: -4.83% |
| COC(=O)c1c(NC(=O)COc2ccc(Cl)cc2C)sc2c1CCCCC2 | inactive: -0.458% |
| COc1ccc(OC)c(NC(=O)CSC2=Nc3ccccc3C3=NC(CCC(=O)NC4CCCCC4)C(=O)N23)c1 (centres undefined) | inactive: -5.1% |
| CSc1cccc(NC(=O)CC(c2ccc(F)cc2)N2Cc3ccccc3C2=O)c1 (centres undefined) | inactive: -20.2% |
| COc1ccc(C)cc1NC(=O)c1oc2ccc(S(=O)(=O)N3CCOCC3)cc2c1C | inactive: -8.99% |
| Cc1ccc(S(=O)(=O)n2nc(C)c(S(=O)(=O)N3CCCCC3)c2C)cc1 | inactive: 3.88% |
| CCc1ccc(CN(Cc2ccco2)C(=O)c2ccc(C)cc2)cc1 | inactive: -15.4% |
| CCOc1ccc(NC(=O)CC2C(=O)N(c3cccc(C)c3)C(=O)N2CCC2=CCCCC2)cc1 (centres undefined) | inactive: -5.13% |
| CCOc1ccc(NC(=O)CCc2c(C)nc3c(c(C)nn3-c3ccccc3)c2C)cc1 | inactive: -13% |
| CSc1ccc(/C=C/c2nc3ccccc3n2S(=O)(=O)c2ccc(F)c(C)c2)cc1 | inactive: 23.4% |
| CC(=O)N(Cc1cccnc1)c1nc2cc(C)cc(C)c2s1 | inactive: -23.4% |
| O=C(Nc1ccccc1)N(Cc1cccs1)c1ccc(Cl)cc1 | inactive: -14.3% |
| CC(=O)Nc1ccccc1-c1nc2ccccc2n(C(C)C(=O)Nc2cccc(C)c2C)c1=O (centres undefined) | inactive: -26.5% |
| CCc1ccc(C(=O)c2cn(CC(=O)Nc3cccc(C)c3C)c3nc(C)ccc3c2=O)cc1 | inactive: 23% |
| COc1ccc(Cl)cc1NC(=O)CN1C(=O)CSc2ccc(S(=O)(=O)N3CCCC3)cc21 | inactive: -19% |
| COc1ccccc1C(=O)N(Cc1ccco1)Cc1ccccc1F | inactive: -24.7% |
| Cc1cc(NC(=O)c2ccco2)cc(-c2nc3cc(Cl)ccc3o2)c1O | inactive: -7.43% |
| CCCCN(CC)C(=O)C1CCC(CNS(=O)(=O)c2cccc3nsnc23)CC1 (centres undefined) | active: 67.6% |
| CCC(C(=O)N(C)Cc1ccccc1)n1nc(C)c2sc3ccccc3c2c1=O (centres undefined) | inactive: -28.9% |

| Structure (SMILES) | activation |
| --- | --- |
| Cc1ccc(CNC(=O)c2cc(Sc3ccc(F)cc3F)nc3ccccc23)cc1 | inactive: -13.2% |
| Cc1cccc(NC(=O)CSc2nc(C)c(Cc3ccccc3)c(=O)[nH]2)c1C | inactive: -13.5% |
| COc1ccc(CCNC(=O)C2=C(C)C(=O)OC23CCCCC3)c(OC)c1 | inactive: -15% |
| COc1ccc(CNC(=O)CCc2c(C)nn(-c3ccc(N4CCOCC4)nn3)c2C)cc1 | inactive: 11% |
| CCOC(=O)c1ccc(CN(Cc2ccc(F)cc2)S(=O)(=O)c2cc(C(=O)Nc3ccccc3CC)ccc2F)cc1 | inactive: -16.8% |
| Cc1ccc2ccc3cc(C(=O)Nc4ccc(C)c(F)c4)nc3c2[nH]1 | active: 60.4% |
| CCOC(=O)N1CCN(S(=O)(=O)N2CCCC(C(=O)NCc3ccccc3OC)C2)CC1 (centres undefined) | inactive: -16% |
| CC(=O)N1CCCC1c1nc2ccccc2n1Cc1cc(C)ccc1C (centres undefined) | inactive: -19.1% |
| COc1ccc(NC(=O)C2CCCN(S(=O)(=O)c3ccc4[nH]c(=O)ccc4c3)C2)cc1OC (centres undefined) | inactive: -9.96% |
| CCn1c(=O)n(CC2CCC(C(=O)NC(C)C)CC2)c(=O)c2sccc21 (centres undefined) | inactive: 4.71% |
| COc1ccc2cc3c(N)nn(C(=O)c4ccc(F)cc4Cl)c3nc2c1 | inactive: 5.08% |
| COc1ccc(NC(=O)CSc2c(C(C)C)cnc3c2c(=O)n(C)c(=O)n3C)c(OC)c1 | inactive: -12.1% |
| Cc1cc(NC(=O)CN2CCC(O)CC2)nc2c1c(=O)oc1ccccc12 | inactive: 38.9% |
| COc1ccc(C(=O)NCC(c2ccc3c(c2)OCO3)N2CCN(C)CC2)cc1OC (centres undefined) | inactive: -1.59% |
| CCOC(=O)c1cc(CC)sc1NC(=O)COc1ccccc1C | inactive: -3.38% |
| CCN1CCN(c2ncnc3c2cnn3-c2ccc(F)cc2)CC1 | inactive: 3.76% |
| CCOC(=O)c1c(C)[nH]c(C)c1S(=O)(=O)N1CCC(C(=O)Nc2ccc(OC)c(OC)c2)CC1 | inactive: -3.48% |
| CCOc1ccc(-n2c(SCC(=O)c3ccccc3)nc3c([nH]c4ccccc43)c2=O)cc1 | inactive: 16.3% |
| COc1ccc(CC(=O)Nc2ccc(-c3nc4ccccc4s3)c(C)c2)cc1 | inactive: 27.8% |
| CC(C)c1nc2sc3c(N4CCCCC4)ncnc3c2c2c1CCCC2 | inactive: 6.86% |
| COc1ccc(NC(=O)c2ccc3oc(=O)c(S(=O)(=O)c4ccc(F)cc4)cc3c2)c(OC)c1 | inactive: -3.06% |

| Structure (SMILES) | activation |
| --- | --- |
| COC(=O)c1ccc(CSc2nc3ccncc3n2Cc2ccc(F)cc2)cc1 | inactive: 6.9% |
| COc1ccc(C(=O)Oc2ccc(C3NC(=O)c4c(sc5c4CCN(C)C5)N3)cc2OC)cc1 (centres undefined) | inactive: -2.06% |
| Cc1ccc(Cl)cc1N1CCN(C(=O)c2cc(S(=O)(=O)N3CCCCC3)cn2C)CC1 | inactive: -4.43% |
| Cc1nc2nc(C)c(CCC(=O)NCc3cccc(Cl)c3)c(C)n2n1 | inactive: -3.45% |
| CCOc1ccccc1NC(=O)c1ccc(C(=O)Nc2ccccc2OCC)cc1 | inactive: 7.11% |
| O=C(Cn1c(=O)n(Cc2ccco2)c(=O)c2sc3ccccc3c21)Nc1ccccc1C(F)(F)F | inactive: 4.59% |
| CCOC(=O)/C=C(C)/C=C/C=C(C)/C=C/c1c(C)cc(OC)c(C)c1C | inactive: 30.2% |
| CC(=O)NCCNC(=O)c1ccc2c(=O)n(CCc3ccccc3)c(=O)[nH]c2c1 | inactive: -0.415% |
| COc1ccc(C2=C(C(C)=O)Sc3nnc(-c4ccccc4)n3N2C(C)=O)cc1 | inactive: -15.8% |
| Cc1ccc(-n2nc(C)c3c(C)c(CCC(=O)NCc4ccccc4Cl)c(C)nc32)cc1 | inactive: -16.3% |
| Fc1ccc(Cc2cn3cc(-c4ccc(F)cc4)nc3s2)cc1 | inactive: 15.2% |
| COc1cc(NC(=O)c2cc3cc4cc(OC)ccc4nc3o2)cc(OC)c1 | inactive: 46.7% |
| CCOc1cc(C2NC(=O)c3c(sc4c3CCN(C)C4)N2)ccc1OC(=O)c1ccc(F)cc1 (centres undefined) | inactive: -1.96% |
| CCCCNC(=O)NS(=O)(=O)c1ccc(N)cc1 | inactive: 11.2% |
| Cc1ccc(CCNC(=O)c2ccc(CSc3nc4ccncc4n3Cc3ccc(F)cc3)cc2)cc1 | inactive: -11.4% |
| COC(=O)c1sc2ccccc2c1S(=O)(=O)N1CCN(c2ccc(C(C)=O)cc2)CC1 | inactive: -22.8% |
| Cc1ccc(-n2nc(CO)c(C(=O)NC(C)c3ccccc3)n2)cc1C (centres undefined) | inactive: -8.21% |
| O=C(Nc1ccc(F)cc1F)c1cc(-c2ccc3c(c2)OCO3)on1 | inactive: -4.27% |
| COc1cc(C2CC(=O)N(CC(=O)Nc3ccccc3F)c3ccccc3S2)cc(OC)c1OC (centres undefined) | inactive: -13.9% |
| CCC(C(=O)NCCc1ccc(SC)cc1)n1nc(C)c2c(C)n(-c3ccc(C)cc3)nc2c1=O (centres undefined) | inactive: -19% |
| CC(=O)c1cc(-c2ccc(F)cc2)n(CCC(=O)NC2CCCCC2)c1C | inactive: -15.7% |

| Structure (SMILES) | activation |
| --- | --- |
| Cc1cccc(OCC(=O)Nc2cccc(-c3nc4ccccc4s3)c2)c1 | inactive: -1.04% |
| COC(=O)c1ccccc1NC(=O)CCc1c(C)nc2cc(-c3ccc(Cl)cc3)nn2c1C | inactive: 13.4% |
| Cc1ccc(Cl)cc1N1CCN(C(=O)c2cn(C)c3ccc(S(=O)(=O)N4CCCCC4)cc3c2=O)CC1 | inactive: -9.07% |
| CC(C)CNc1cc(NC2CCCCC2)c2c3c(onc13)-c1ccccc1C2=O | inactive: -37.2% |
| O=C(CC1N=C2c3ccccc3N=C(SCc3cccc(F)c3)N2C1=O)NC1CCCCC1 (centres undefined) | inactive: -26.4% |
| CCSc1nc2sc3c(c2c(=O)n1-c1ccc(C)cc1)CCCC3 | inactive: -6.25% |
| COc1cccc(CNCc2c(C(=O)O)c(C)n(Cc3ccc(F)cc3Cl)c2C)c1OC | inactive: 10.7% |
| O=C(Nc1ccc(F)c(F)c1)c1ccc(F)c(S(=O)(=O)N2CCC3(CC2)OCCO3)c1 | inactive: 24.1% |
| O=S(=O)(Nc1cccc(-c2ccc(N3CCCCC3)nn2)c1)c1ccc(F)cc1F | inactive: 16.8% |
| CSc1ccc(CCNC(=O)CCc2c(C)nc3c4cccnc4nn3c2C)cc1 | inactive: 8.63% |
| CCOc1ccc(NS(=O)(=O)c2ccc3[nH]cc(C(=O)N(C)C4CCCCC4)c(=O)c3c2)cc1 | inactive: -0.625% |
| Cc1ccc2c(=O)cc(C(=O)Nc3c(C(=O)c4ccccc4)oc4ccccc34)oc2c1 | inactive: 8.81% |
| NC(=O)C1CCN(C(=O)c2ccc3c(c2)N(Cc2cccc(Cl)c2)C(=O)c2ccccc2S3(=O)=O)CC1 | inactive: -24.2% |
| CCOC(=O)c1c(-c2ccc(C)cc2C)csc1NC(=O)c1ccccc1Cl | inactive: 3.32% |
| O=C(NCCCN1CCCCC1)c1ccc2c(c1)sc1nc(-c3ccc(F)cc3)cn12 | inactive: 8.8% |
| COC(=O)c1c(-c2cccs2)csc1NC(=O)COc1ccccc1 | inactive: -12.3% |
| COc1ccc(C2C(=O)N(C3CCCCCC3)CC(=O)N2Cc2ccccc2)cc1 (centres undefined) | inactive: -25.7% |
| O=C(O)c1ccc[n+]([O-])c1 | inactive: 5.43% |
| COCCNC(=O)Cn1cc2c(n1)-c1c(oc(C(=O)N3CCCC3)c1C)CC2 | inactive: 16.5% |
| NC(=O)Cn1c(=O)n(CCCCCC(=O)NCc2ccccc2Cl)c(=O)c2sccc21 | inactive: -9.54% |
| CC(CNC(=O)c1ccc(Nc2nc3ccccc3n3nnnc23)cc1)c1ccccc1 (centres undefined) | inactive: -17.2% |
